Laboratory results from PubChem BioAssay (NCI).
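Tested at 5 concentrations; 48 h exposure; 96-well plates; endpoints linearly interpolated, else capped at highest concentration. The concentration for 50% growth inhibition is given as GI50. Definition used: TGI = concentration required for complete inhibition of growth.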

Each compound was assayed on NCI-H322M lung (assay: inhibition of tumour cell growth, NCI panel, 48 h).

Compound | GI50 [µM] | TGI [µM]
CN(C)S(=O)(=O)c1oc(-c2ccccc2)nc1C#N | 43 | > 100
CCN(CC)CCOc1ccc(C(=C(C)c2ccc(OC)cc2)c2ccc(OCCN(CC)CC)cc2)cc1 | 1.79 | 6.75
Nn1c(=O)n(-c2cccc(C(F)(F)F)c2)c(=O)c2cc(-c3ccc(F)cc3F)ccc21 | 1.78 | 9.03
CC(C)(C)c1ccc(C(=O)Nc2sc3c(c2C(N)=O)CCC(O)C3)cc1 (stereo not drawn) | 6.82 | 20.7
